The list shows a part of the results. At the low end of the ranking the order means little.
What follows are sequences tested against SIX1 homeodomain (reference allele) (UniProt Q15475) (assay: universal protein binding microarray). Details: Universal all-10-mer PBM (8x60K, AMADID 030236), 300 nM GST-tagged protein, Alexa Fluor 488 anti-GST; buffer, salt, pH and temperature not stated; high values mean tight binding; most listed sequences are background and not binding sites; double strand, one strand shown.

| Sequence | binding signal [E-score] |
| --- | --- |
| ACCTGATG | -0.0924 |
| GCTGTGTA | 0.0891 |
| AAAATCGT | -0.0968 |
| CATACTAA | -0.119 |
| CAACAGCG | -0.0299 |
| CGTTGATC | 0.152 |
| ACCACGTA | 0.0322 |
| AAGCACCG | -0.228 |
| ACACTCGA | -0.00214 |
| ACGGCCAC | -0.23 |
| GGCCGGAC | -0.193 |
| CAGGCTGA | 0.0399 |
| AATGCACG | -0.168 |
| ATTCAACA | 0.0665 |
| GCCATGTA | 0.183 |
| CTGCAGTA | -0.193 |
| GTATTAAA | 0.246 |
| CCAGTGCC | -0.0955 |
| AGTTCGCC | -0.245 |
| AGTAACAG | -0.126 |
| CGAAGTTC | -0.259 |
| AGACTTGA | -0.126 |
| CCGTGTAA | 0.071 |
| GGAGAGGA | 0.0657 |
| CGTGAAAC | -0.191 |

| Sequence | binding signal [E-score] |
| --- | --- |
| AAAACGTA | -0.121 |
| ACGCCCGG | 0.00351 |
| CAAGCCGG | -0.0764 |
| ACCGACGT | -0.0828 |
| CAAAGACG | -0.26 |
| CGGCGCCG | -0.0602 |
| GACATTAA | -0.121 |
| AGAACGTA | -0.106 |
| AACCCCCG | 0.049 |
| ATCTTGAC | 0.129 |
| ATAGCCGC | 0.0754 |
| ACTCCGGA | 0.16 |
| ACGGACGT | -0.112 |
| AACAATGA | -0.0339 |
| AGGTTATA | 0.12 |
| GAGGGAGC | -0.178 |
| ATCACAAA | 0.193 |
| AGGTCGGC | -0.111 |
| CGGTGACG | -0.171 |
| AGACTGTA | -0.157 |
| GAGGGAAC | -0.364 |
| AGTCGAAC | -0.0996 |
| ATGGGAGA | -0.0506 |
| CTGTAGGC | -0.21 |
| ATGCCCCA | 0.114 |

| Sequence | binding signal [E-score] |
| --- | --- |
| AGCGTCTG | 0.0452 |
| ATGGCCCG | -0.123 |
| CCCTTGAA | 0.0113 |
| ATTGATGA | -0.0497 |
| AAGAACTT | -0.26 |
| CTGGCGGC | -0.218 |
| CTGATGGC | -0.185 |
| CTTAAGTC | -0.228 |
| GAGCAGCA | -0.3 |
| CGTTCACA | -0.224 |
| GGGAACAA | -0.137 |
| CGATCTGA | 0.302 |
| ACAAAAGA | -0.0402 |
| AATTGGGA | -0.0847 |
| ATCGGCCG | 0.128 |
| GTCACAGA | -0.00367 |
| AGTTTTAT | -0.142 |
| TAAGTCGA | 0.106 |
| CCTCGACC | -0.03 |
| CTACACAC | -0.0921 |
| GCTTTACC | -0.148 |
| AGCCATGC | 0.0186 |
| TGCCAGCA | -0.273 |
| AGCAGAAG | -0.195 |
| GACACACC | 0.165 |

| Sequence | binding signal [E-score] |
| --- | --- |
| ACAGAGTG | -0.119 |
| CGGCCGTA | -0.0155 |
| CGGGGAAC | 0.0229 |
| CGGGCTTC | 0.0267 |
| GACGCCTC | -0.0993 |
| ATAAATTA | -0.0707 |
| GGGCCCGA | -0.0416 |
| ATTCCCGA | 0.0123 |
| AGCTTAGC | -0.233 |
| AGCATCAA | -0.027 |
| TACTCGCA | 0.154 |
| TATAAGAA | 0.0186 |
| AGCATCAG | 0.0106 |
| ACTATCAT | 0.3 |
| CCAGATAA | 0.234 |
| AAACACGA | -0.162 |
| GGTCTTAC | -0.0205 |
| TCAAAGAA | -0.26 |
| CATCATGG | 0.0742 |
| CAGCTCGC | 0.0263 |
| TAGTTCCA | -0.0642 |
| ATTTCCTA | -0.0321 |
| GCCAAGCA | -0.29 |
| AAATGCGC | -0.274 |
| AATCCCGA | 0.223 |

| Sequence | binding signal [E-score] |
| --- | --- |
| AGCACGAG | 0.09 |
| ATCATCAC | 0.228 |
| GCGTTTAC | -0.073 |
| AAAGCATA | -0.18 |
| AAAGAGGT | -0.146 |
| GGCCTGAA | -0.241 |
| CCGGCGCG | 0.0861 |
| ACTACCCG | 0.159 |
| CTGGAACC | -0.0881 |
| AAGCATAG | -0.205 |
| ACGCATAC | 0.1 |
| ATGGTTAC | -0.13 |
| AACTATAA | -0.206 |
| GTGCGTCA | -0.179 |
| CGGCAGAA | -0.0996 |
| AGTACCGA | -0.0772 |
| AAGTTCCA | -0.137 |
| AATCAAAC | -0.167 |
| GACCATGC | -0.0171 |
| AAGCGTAA | -0.231 |
| TGCTGACA | -0.0304 |
| AAATAATA | 0.192 |
| CCGTGCCG | -0.168 |
| CCCGCCGC | 0.019 |
| CTAAGATC | 0.207 |

| Sequence | binding signal [E-score] |
| --- | --- |
| GAATCCTC | -0.0341 |
| CCTTTAGC | -0.222 |
| GCTTGCAC | -0.246 |
| AACAGAAA | -0.254 |
| ACATGCCG | 0.0693 |
| AGCCGTAA | -0.0925 |
| ACTTGGCA | -0.12 |
| AATCTGCT | -0.0349 |
| CCCCTGTA | 0.144 |
| GTTACTTA | -0.0663 |
| GCACTGAC | -0.0298 |
| AGTCGTTC | -0.336 |
| AAGGCGGT | -0.0222 |
| CGCAGACC | -0.158 |
| CCTTGAGC | -0.058 |
| AGGTGAGC | 0.0625 |
| AAGGAATC | -0.00012 |
| ATTCTCGC | -0.0601 |
| CGAGAGTC | -0.141 |
| ATAAATGG | -0.0817 |
| ACGTACAT | -0.118 |
| AAGTCACG | -0.127 |
| ACAACGAA | 0.0151 |
| CGTTGGGC | -0.134 |
| AAAGATCC | 0.277 |

| Sequence | binding signal [E-score] |
| --- | --- |
| CTTATCGA | 0.00559 |
| CCTCAACA | 0.0814 |
| CTCTGTAC | -0.00309 |
| GCTCTACA | -0.00505 |
| TTCACAAA | -0.174 |
| GATCTGCA | 0.258 |
| AAAGCCAT | -0.146 |
| CCAGGGGG | 0.0356 |
| ACGGCCAG | -0.0895 |
| ATTTCATA | 0.101 |
| TCATAGGA | 0.0152 |
| CAGATCCG | 0.322 |
| CGGAAGTA | -0.0644 |
| ACGATTGC | -0.179 |
| GCCGGGCA | -0.127 |
| TGGCCCCA | -0.198 |
| CTCCAACA | -0.148 |
| ATTATCTC | 0.203 |
| ATGTGTCA | -0.0934 |
| ATCGGTTC | 0.248 |
| AGGTGAGA | 0.159 |
| ATTGGTCG | -0.147 |
